{"source": "patent US20260209265A1", "about": "(NAVIGO PROTEINS, published 2026)", "key": {"Octagam (IgG sample) [1]": {"target": "T1, Octagam (IgG sample)", "T1 construct": "also called hIgG", "experiment": "step pH elution with 0.1 M acetic acid of hIgG (Octagam) bound to the immobilized ligand; percent of the bound IgG released at pH 3.7"}, "Octagam (IgG sample) [2]": {"target": "T1, Octagam (IgG sample)", "experiment": "dynamic binding capacity at 10% breakthrough; ligand coupled to agarose beads, Octagam 2.2 mg/ml loaded"}, "Natalizumab (IgG4)": {"target": "Natalizumab (IgG4)", "sequence (VH, as listed by the source, chain 1 of 2)": "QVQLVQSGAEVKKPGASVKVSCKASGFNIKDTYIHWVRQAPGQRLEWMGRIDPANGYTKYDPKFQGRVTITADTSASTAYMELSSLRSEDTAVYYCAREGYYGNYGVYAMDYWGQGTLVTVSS", "sequence (VL, as listed by the source, chain 2 of 2)": "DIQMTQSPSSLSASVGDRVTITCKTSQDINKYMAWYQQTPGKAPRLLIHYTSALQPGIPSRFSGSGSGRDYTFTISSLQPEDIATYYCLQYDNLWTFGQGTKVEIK", "experiment": "SPR (Bruker SPR-32, 25 C, Langmuir 1:1 model)"}, "Panitumab (IgG2)": {"target": "T2, Panitumab (IgG2)", "T2 construct": "also called hIgG2", "experiment": "SPR (Bruker SPR-32, 25 C, Langmuir 1:1 model)"}, "Octagam (IgG sample) [3]": {"target": "T1, Octagam (IgG sample)", "experiment": "DBC10 of the immobilized ligand after 50 h in 1 M NaOH, in % of the DBC10 at 0 h; Octagam loaded, 6 min residence time"}, "Octagam (IgG sample) [4]": {"target": "T1, Octagam (IgG sample)", "experiment": "step pH elution with 0.1 M acetic acid of hIgG (Octagam) bound to the immobilized ligand; percent of the bound IgG released at pH 4.0"}}, "data": [{"binder": "224771 (SEQ ID NO: 10) (designed binder, also called 224771 pentamer) AQFDKIQQIAFYEILHLPNLTEEQRHAFIQSLRDDPSVSKEILAEAKKLNDAQAPKIAAQFDKIQQIAFYEILHLPNLTEEQRHAFIQSLRDDPSVSKEILAEAKKLNDAQAPKIAAQFDKIQQIAFYEILHLPNLTEEQRHAFIQSLRDDPSVSKEILAEAKKLNDAQAPKIAAQFDKIQQIAFYEILHLPNLTEEQRHAFIQSLRDDPSVSKEILAEAKKLNDAQAPKIAAQFDKIQQIAFYEILHLPNLTEEQRHAFIQSLRDDPSVSKEILAEAKKLNDAQAPK", "values": [{"measurement": "Amount eluted IgG pH 3.7 (%)", "setting": "Octagam (IgG sample) [1]", "result": 3, "unit": "%"}, {"measurement": "DBC10% 6 min residence time", "setting": "Octagam (IgG sample) [2]", "result": 63, "unit": "mg/mL"}, {"measurement": "Kd", "setting": "Natalizumab (IgG4)", "result": "< 0.5", "unit": "nM"}, {"measurement": "Kd", "setting": "Panitumab (IgG2)", "result": 2, "unit": "nM"}, {"measurement": "Remaining IgG binding capacity after 50 h, 1 M NaOH (%)", "setting": "Octagam (IgG sample) [3]", "result": 66, "unit": "%"}, {"measurement": "Amount eluted IgG pH 4.0 (%)", "setting": "Octagam (IgG sample) [4]", "result": 97, "unit": "%"}]}, {"binder": "224785 (SEQ ID NO: 12) (designed binder, also called 224785 pentamer) AQFDKIQQAAFYEILHLPNLTEEQRHAFIQSLRDDPSVSKEILAEAKKLNDAQAPKIAAQFDKIQQAAFYEILHLPNLTEEQRHAFIQSLRDDPSVSKEILAEAKKLNDAQAPKIAAQFDKIQQAAFYEILHLPNLTEEQRHAFIQSLRDDPSVSKEILAEAKKLNDAQAPKIAAQFDKIQQAAFYEILHLPNLTEEQRHAFIQSLRDDPSVSKEILAEAKKLNDAQAPKIAAQFDKIQQAAFYEILHLPNLTEEQRHAFIQSLRDDPSVSKEILAEAKKLNDAQAPK", "values": [{"measurement": "Amount eluted IgG pH 3.7 (%)", "setting": "Octagam (IgG sample) [1]", "result": 6, "unit": "%"}, {"measurement": "DBC10% 6 min residence time", "setting": "Octagam (IgG sample) [2]", "result": 61, "unit": "mg/mL"}, {"measurement": "Kd", "setting": "Natalizumab (IgG4)", "result": "< 0.5", "unit": "nM"}, {"measurement": "Kd", "setting": "Panitumab (IgG2)", "result": 1.7, "unit": "nM"}, {"measurement": "Remaining IgG binding capacity after 50 h, 1 M NaOH (%)", "setting": "Octagam (IgG sample) [3]", "result": 63, "unit": "%"}, {"measurement": "Amount eluted IgG pH 4.0 (%)", "setting": "Octagam (IgG sample) [4]", "result": 94, "unit": "%"}]}, {"binder": "228302 (SEQ ID NO: 18) (designed binder, also called 228302 pentamer) AKFDEIAQAAFYEILHLPNLTEEQRHAFIQSLRDDPSVSKEILAEAKKLNDAQAPKIAAKFDEIAQAAFYEILHLPNLTEEQRHAFIQSLRDDPSVSKEILAEAKKLNDAQAPKIAAKFDEIAQAAFYEILHLPNLTEEQRHAFIQSLRDDPSVSKEILAEAKKLNDAQAPKIAAKFDEIAQAAFYEILHLPNLTEEQRHAFIQSLRDDPSVSKEILAEAKKLNDAQAPKIAAKFDEIAQAAFYEILHLPNLTEEQRHAFIQSLRDDPSVSKEILAEAKKLNDAQAPK", "values": [{"measurement": "Kd", "setting": "Natalizumab (IgG4)", "result": 3.3, "unit": "nM"}, {"measurement": "Kd", "setting": "Panitumab (IgG2)", "result": 24, "unit": "nM"}]}, {"binder": "224770 (SEQ ID NO: 9) (designed binder, also called 224770 pentamer) AQFDKIAQAAFYEILHLPNLTEEQRHAFIQSLRDDPSVSKEILAEAKKLNDAQAPKIAAQFDKIAQAAFYEILHLPNLTEEQRHAFIQSLRDDPSVSKEILAEAKKLNDAQAPKIAAQFDKIAQAAFYEILHLPNLTEEQRHAFIQSLRDDPSVSKEILAEAKKLNDAQAPKIAAQFDKIAQAAFYEILHLPNLTEEQRHAFIQSLRDDPSVSKEILAEAKKLNDAQAPKIAAQFDKIAQAAFYEILHLPNLTEEQRHAFIQSLRDDPSVSKEILAEAKKLNDAQAPK", "values": [{"measurement": "Amount eluted IgG pH 3.7 (%)", "setting": "Octagam (IgG sample) [1]", "result": 0, "unit": "%"}, {"measurement": "DBC10% 6 min residence time", "setting": "Octagam (IgG sample) [2]", "result": 60, "unit": "mg/mL"}, {"measurement": "Kd", "setting": "Natalizumab (IgG4)", "result": 3, "unit": "nM"}, {"measurement": "Kd", "setting": "Panitumab (IgG2)", "result": 9.1, "unit": "nM"}, {"measurement": "Remaining IgG binding capacity after 50 h, 1 M NaOH (%)", "setting": "Octagam (IgG sample) [3]", "result": 74, "unit": "%"}, {"measurement": "Amount eluted IgG pH 4.0 (%)", "setting": "Octagam (IgG sample) [4]", "result": 100, "unit": "%"}]}, {"binder": "224772 (SEQ ID NO: 8) (designed binder, also called 224772 pentamer) AQFDKIQQAAFYAILHLPNLTEEQRHAFIQSLRDDPSVSKEILAEAKKLNDAQAPKIAAQFDKIQQAAFYAILHLPNLTEEQRHAFIQSLRDDPSVSKEILAEAKKLNDAQAPKIAAQFDKIQQAAFYAILHLPNLTEEQRHAFIQSLRDDPSVSKEILAEAKKLNDAQAPKIAAQFDKIQQAAFYAILHLPNLTEEQRHAFIQSLRDDPSVSKEILAEAKKLNDAQAPKIAAQFDKIQQAAFYAILHLPNLTEEQRHAFIQSLRDDPSVSKEILAEAKKLNDAQAPK", "values": [{"measurement": "Amount eluted IgG pH 3.7 (%)", "setting": "Octagam (IgG sample) [1]", "result": 3, "unit": "%"}, {"measurement": "DBC10% 6 min residence time", "setting": "Octagam (IgG sample) [2]", "result": 65, "unit": "mg/mL"}, {"measurement": "Kd", "setting": "Natalizumab (IgG4)", "result": "< 0.5", "unit": "nM"}, {"measurement": "Kd", "setting": "Panitumab (IgG2)", "result": "< 0.5", "unit": "nM"}, {"measurement": "Remaining IgG binding capacity after 50 h, 1 M NaOH (%)", "setting": "Octagam (IgG sample) [3]", "result": 80, "unit": "%"}, {"measurement": "Amount eluted IgG pH 4.0 (%)", "setting": "Octagam (IgG sample) [4]", "result": 97, "unit": "%"}]}]}
